The target in experiment [1] is T1, murine GPR182 (mGPR182), expressed from mGPR182 T2A GFP in 300.19 pre-B cells (mouse) (UniProt P43142).
T1 sequence: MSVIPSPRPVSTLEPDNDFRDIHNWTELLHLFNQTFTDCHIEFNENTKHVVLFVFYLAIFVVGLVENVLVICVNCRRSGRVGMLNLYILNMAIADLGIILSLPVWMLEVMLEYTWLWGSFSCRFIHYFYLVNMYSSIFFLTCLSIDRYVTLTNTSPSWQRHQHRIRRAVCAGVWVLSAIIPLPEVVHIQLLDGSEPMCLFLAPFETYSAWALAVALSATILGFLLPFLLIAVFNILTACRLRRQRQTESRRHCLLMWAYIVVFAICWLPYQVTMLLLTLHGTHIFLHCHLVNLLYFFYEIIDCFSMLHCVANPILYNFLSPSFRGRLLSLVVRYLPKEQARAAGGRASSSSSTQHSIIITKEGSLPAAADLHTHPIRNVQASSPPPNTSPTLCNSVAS
As to the kind of experiment: flow cytometry on cells; binding: 300.19 pre-B cells stably expressing the receptor (T2A GFP) incubated with 100 or 200 nM fluorescently labelled chemokine at 4°C for 45 min; MFI of parental cells subtracted; only the binder purified.

Amino acid sequences for entries named in this document (tags omitted). A change or cut given only in a name is not applied to a line headed by its entry.
UniProt O15218: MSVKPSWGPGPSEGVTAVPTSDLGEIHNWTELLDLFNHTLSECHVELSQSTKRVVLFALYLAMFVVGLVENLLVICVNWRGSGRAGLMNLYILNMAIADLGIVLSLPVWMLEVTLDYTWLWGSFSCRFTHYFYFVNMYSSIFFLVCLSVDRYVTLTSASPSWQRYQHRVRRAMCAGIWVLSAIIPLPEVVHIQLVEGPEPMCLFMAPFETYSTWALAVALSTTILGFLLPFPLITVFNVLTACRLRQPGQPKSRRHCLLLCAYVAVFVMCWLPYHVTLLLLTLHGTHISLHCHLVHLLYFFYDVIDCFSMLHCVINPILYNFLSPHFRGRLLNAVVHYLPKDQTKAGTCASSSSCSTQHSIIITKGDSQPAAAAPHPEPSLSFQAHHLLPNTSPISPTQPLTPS
UniProt P25106: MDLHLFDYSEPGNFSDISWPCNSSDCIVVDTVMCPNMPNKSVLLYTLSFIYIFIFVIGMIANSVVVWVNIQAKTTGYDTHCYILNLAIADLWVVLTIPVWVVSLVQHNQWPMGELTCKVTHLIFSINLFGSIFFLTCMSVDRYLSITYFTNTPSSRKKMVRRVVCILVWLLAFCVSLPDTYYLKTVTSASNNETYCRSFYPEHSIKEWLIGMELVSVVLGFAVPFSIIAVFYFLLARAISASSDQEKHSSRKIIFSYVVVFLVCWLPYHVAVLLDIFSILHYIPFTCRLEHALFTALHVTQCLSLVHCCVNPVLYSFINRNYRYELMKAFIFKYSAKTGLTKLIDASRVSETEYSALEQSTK

Experiment [2] concerns the target T2, hACKR4 (T2A GFP) in 300.19 pre-B cells (human) (UniProt Q9NPB9).
T2 sequence: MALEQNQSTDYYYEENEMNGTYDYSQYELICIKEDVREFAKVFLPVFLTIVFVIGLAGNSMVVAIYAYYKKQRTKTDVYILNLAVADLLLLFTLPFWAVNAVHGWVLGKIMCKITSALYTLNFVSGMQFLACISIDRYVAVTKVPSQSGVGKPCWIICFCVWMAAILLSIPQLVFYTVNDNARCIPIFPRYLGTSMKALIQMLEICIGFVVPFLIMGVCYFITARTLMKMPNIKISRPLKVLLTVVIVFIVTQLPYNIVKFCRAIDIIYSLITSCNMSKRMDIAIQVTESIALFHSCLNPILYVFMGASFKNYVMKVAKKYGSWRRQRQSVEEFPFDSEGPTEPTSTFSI
The experiment is described as above.

Experiment [3] addresses human GPR182 (hGPR182), expressed from hGPR182 T2A GFP in 300.19 pre-B cells (human) (UniProt O15218). Described as above.
Experiment [4] addresses T1, murine GPR182 (mGPR182), expressed from mGPR182 T2A GFP in 300.19 pre-B cells (mouse). As to the kind of experiment: flow cytometry on cells; uptake: 300.19 pre-B cells stably expressing the receptor (T2A GFP), together with parental cells, incubated with 20, 100 or 200 nM fluorescently labelled chemokine at 37°C for 45 min; MFI of parental cells subtracted; only the binder purified. In general terms: In flow cytometry, cells or beads pass a laser one at a time.

The target of experiment [5] is T2, hACKR4 (T2A GFP) in 300.19 pre-B cells (human). The description is as above.
The target of experiment [6] is human GPR182 (hGPR182), expressed from hGPR182 T2A GFP in 300.19 pre-B cells (human) (UniProt O15218). Described as above.
The target of experiment [7] is hACKR3 (T2A GFP) in 300.19 pre-B cells (human) (UniProt P25106). As to the kind of experiment: flow cytometry on cells; binding: 300.19 pre-B cells stably expressing the receptor (T2A GFP) incubated with 100 or 200 nM fluorescently labelled chemokine at 4°C for 45 min; MFI of parental cells subtracted; only the binder purified.
Experiment [8] shares this target. As to the kind of experiment: flow cytometry on cells; uptake: 300.19 pre-B cells stably expressing the receptor (T2A GFP), together with parental cells, incubated with 20, 100 or 200 nM fluorescently labelled chemokine at 37°C for 45 min; MFI of parental cells subtracted; only the binder purified.
Experiment [9] deals with T1, murine GPR182 (mGPR182), expressed from mGPR182 T2A GFP in 300.19 pre-B cells (mouse). As to the kind of experiment: flow cytometry on cells; competition scavenging at 37°C: 300.19 cells expressing mGPR182 or hGPR182 with 3 nM fluorescent chemokine and increasing concentrations of its unlabeled counterpart, 45 min; only the binder purified.
Experiment [10] has the same target. As to the kind of experiment: flow cytometry on cells; competition binding at 4°C: 300.19 cells expressing mGPR182 or hGPR182 with 3 nM fluorescent chemokine and increasing concentrations of its unlabeled counterpart, 45 min; only the binder purified.

This is an account of results in paper PMC10405735.

Results are given in words; binding and its absence hold for the method and conditions named. Some entries that bind do so weakly or less than the wild type. For some of these results: Tags and fused reporters may be left off the sequences shown.

B1: mCCL25, fluorescently labelled (ligand, UniProt O35903 24-144)
chain: QGAFEDCCLGYQHRIKWNVLRHARNYHQQEVSGSCNLRAVRFYFRQKVVCGNPEDMNVKRAMRILTARKRLVHWKSASDSQTERKKSNHMKSKVENPNSTSVRSATLGHPRMVMMPRKTNN
modifications: fluorescent label (AF647 or Dy649), site not stated
As for B1, the binding result in experiment [1], in experiment [2], in experiment [3], in experiment [4], in [5] and in [6] was “binds” throughout.

B2: hCXCL11, fluorescently labelled (ligand, UniProt O14625 22-94)
chain: FPMFKRGRCLCIGPGVKAVKVADIEKASIMYPSNNCDKIEVIITLKENKGQRCLNPKSKQARLIIKKVERKNF
modifications: fluorescent label (AF647 or Dy649), site not stated
Regarding B2, the binding entry in experiment [1], in experiment [7], in [4], in experiment [8] and in [6] was “binds” throughout.

B3: mCCL19, fluorescently labelled (ligand, UniProt O70460 26-108)
chain: GANDAEDCCLSVTQRPIPGNIVKAFRYLLNEDGCRVPAVVFTTLRGYQLCAPPDQPWVDRIIRRLKKSSAKNKGNSTRRSPVS
modifications: fluorescent label (AF647 or Dy649), site not stated
Take B3: the binding entry in [9] is listed as “binds”; in experiment [4], “binds”; in [6], “no binding (tested: 200 nM)”; in experiment [10] it was “binds”.

B4: mCXCL13, fluorescently labelled (ligand, UniProt O55038 22-109)
chain: ILEAHYTNLKCRCSGVISTVVGLNIIDRIQVTPPGNGCPKTEVVIWTKMKKVICVNPRAKWLQRLLRHVQSKSLSSTPQAPVSKRRAA
modifications: fluorescent label (AF647 or Dy649), site not stated
Take B4: the binding entry in experiment [4] and in experiment [6] was “binds” each time.

B5: mCXCL1, fluorescently labelled (ligand, UniProt P12850 25-96)
chain: APIANELRCQCLQTMAGIHLKNIQSLKVLPSGPHCTQTEVIATLKNGREACLDPEAPLVQKIVQKMLKGVPK
modifications: fluorescent label (AF647 or Dy649), site not stated
In the case of B5, the binding entry in [4] and in experiment [6] was “binds weakly” throughout.
